From publication PMC5441636 come the findings set out here.

The target in experiment [1] is human TAP1 D-helix NBD variant with the D-loop D674A mutation (human) (UniProt Q03518). Description: SEC; analytical S200 3.2/30 column, 10 μl of 10 mg/ml protein; protein preloaded with ATP, 1 mM ATP in the elution buffer (20 mM Tris-HCl pH 8.0, 50 mM NaCl, 5 mM MgCl2, 10% glycerol); monomer to dimer; both purified. On the technique in general: Size exclusion chromatography separates by hydrodynamic size, large species first.

The target in experiment [2] is human TAP1 NBD L595F/Q596R (human-to-rat chimeric construct) (human) (UniProt Q03518). The experiment is described as above.
The target of experiment [3] is human TAP1 NBD N676G/S677N (human) (UniProt Q03518). Description: SEC; analytical S200 3.2/30 column, 10 μl of 10 mg/ml protein; nucleotide of these panels (Fig 4A, Fig 5A) not stated in text or legend; both purified.
The target of experiment [4] is human TAP1 NBD R515H/D517N (human-to-rat chimeric construct) (human) (UniProt Q03518). Kind of experiment: SEC; analytical S200 3.2/30 column, 10 μl of 10 mg/ml protein; protein preloaded with ATP, 1 mM ATP in the elution buffer (20 mM Tris-HCl pH 8.0, 50 mM NaCl, 5 mM MgCl2, 10% glycerol); monomer to dimer; both purified.
The target of experiment [5] is rat TAP1 NBD G653N/N654S (rat) (UniProt P36370). Kind of experiment: SEC; analytical S200 3.2/30 column, 10 μl of 10 mg/ml protein; nucleotide of these panels (Fig 4A, Fig 5A) not stated in text or legend; both purified.
Experiment [6] deals with rat TAP1 D651A NBD (D-loop mutant) (rat) (UniProt P36370). Kind of experiment: SEC; analytical S200 3.2/30 column, 10 μl of 10 mg/ml protein; protein preloaded with ATP, 1 mM ATP in the elution buffer (20 mM Tris-HCl pH 8.0, 50 mM NaCl, 5 mM MgCl2, 10% glycerol); monomer to dimer; both purified.

Substitutions are numbered along the chain they refer to. Names and notes keep the numbering of the source. No constants are given. Whether binding was seen depends on the method and setting. Some results given as binding are weak or reduced against the parent protein; the word gives no strength.

Take “human TAP1 D-helix NBD variant with the D-loop D674A mutation (from UniProt Q03518 489-748) (domain or fragment)”: the binding result in experiment [1] is recorded as “no binding (tested: 10 mg/ml injected)”.

As to “human TAP1 NBD L595F/Q596R (human-to-rat chimeric construct) (from UniProt Q03518 489-748) (domain or fragment)”, the binding result in experiment [2] is listed as “no binding (tested: 10 mg/ml injected)”.

For the molecule “human TAP1 NBD N676G/S677N (from UniProt Q03518 489-748) (domain or fragment)”, in experiment [3], the binding entry is “no binding (tested: 10 mg/ml injected)”.

Consider “human TAP1 NBD R515H/D517N (human-to-rat chimeric construct) (from UniProt Q03518 489-748) (domain or fragment)”, for which the binding entry in experiment [4] is “no binding (tested: 10 mg/ml injected)”.

B1: rat TAP1 NBD G653N/N654S (domain or fragment, UniProt P36370 466-725)
chain: PLSGSLAPLNMKGLVKFQDVSFAYPNHPNVQVLQGLTFTLYPGKVTALVGPNGSGKSTVAALLQNLYQPTGGKVLLDGEPLVQYDHHYLHTQVAAVGQEPLLFGRSFRENIAYGLTRTPTMEEITAVAMESGAHDFISGFPQGYDTEVGETGNQLSGGQRQAVALARALIRKPRLLILDDATSALDANSQLRVQRLLYESPEWASRTVLLITQQLSLAERAHHILFLKEGSVCEQGTHLQLMERGGCYRSMVEALAAPSD
On to B1, for which the binding entry in experiment [5] was “binds”.

B2: rat TAP1 D651A NBD (D-loop mutant) (domain or fragment, UniProt P36370 466-725)
chain: B1 chain with D186A, N188G, S189N
Take B2: in experiment [6], the binding result was “no binding (tested: 10 mg/ml injected)”.
